Data reported in PubChem BioAssay (Tox21).
“And” between values parts separate entries of the source, which are not always exact repeats. Identical values can stand only once. The source made the active and inactive calls. Unless noted, calls follow the shape of the dose curve; as a rule, active = well fitted curve in the direction sought with a large enough effect in the repeat runs; inconclusive = weak or mixed curves; inactive = no such curve, though single readings can be large; an effect the other way counts as inactive or inconclusive.

Assays:
[1] = target: Androgen receptor (Homo sapiens) (UniProt P10275); experiment: qHTS assay to identify small molecule antagonists of the androgen receptor (AR) signaling pathway (AID 743035; active = well fitted inhibition curve with a large enough effect in the signal ratio in the repeat runs, not every such curve was filed as active; inconclusive = weak or mixed curves, or effect the other way; inactive = no such curve, though single readings can be large or run the other way; the % refers to the signal ratio); details: HEK293 AR-UAS-bla, R1881-stimulated, beta-lactamase FRET, 16 h; activity change, negative = inhibition: at 58.5 µM (top of the series) unless noted
UniProt P10275, sequence (P10275 whole entry, looked up): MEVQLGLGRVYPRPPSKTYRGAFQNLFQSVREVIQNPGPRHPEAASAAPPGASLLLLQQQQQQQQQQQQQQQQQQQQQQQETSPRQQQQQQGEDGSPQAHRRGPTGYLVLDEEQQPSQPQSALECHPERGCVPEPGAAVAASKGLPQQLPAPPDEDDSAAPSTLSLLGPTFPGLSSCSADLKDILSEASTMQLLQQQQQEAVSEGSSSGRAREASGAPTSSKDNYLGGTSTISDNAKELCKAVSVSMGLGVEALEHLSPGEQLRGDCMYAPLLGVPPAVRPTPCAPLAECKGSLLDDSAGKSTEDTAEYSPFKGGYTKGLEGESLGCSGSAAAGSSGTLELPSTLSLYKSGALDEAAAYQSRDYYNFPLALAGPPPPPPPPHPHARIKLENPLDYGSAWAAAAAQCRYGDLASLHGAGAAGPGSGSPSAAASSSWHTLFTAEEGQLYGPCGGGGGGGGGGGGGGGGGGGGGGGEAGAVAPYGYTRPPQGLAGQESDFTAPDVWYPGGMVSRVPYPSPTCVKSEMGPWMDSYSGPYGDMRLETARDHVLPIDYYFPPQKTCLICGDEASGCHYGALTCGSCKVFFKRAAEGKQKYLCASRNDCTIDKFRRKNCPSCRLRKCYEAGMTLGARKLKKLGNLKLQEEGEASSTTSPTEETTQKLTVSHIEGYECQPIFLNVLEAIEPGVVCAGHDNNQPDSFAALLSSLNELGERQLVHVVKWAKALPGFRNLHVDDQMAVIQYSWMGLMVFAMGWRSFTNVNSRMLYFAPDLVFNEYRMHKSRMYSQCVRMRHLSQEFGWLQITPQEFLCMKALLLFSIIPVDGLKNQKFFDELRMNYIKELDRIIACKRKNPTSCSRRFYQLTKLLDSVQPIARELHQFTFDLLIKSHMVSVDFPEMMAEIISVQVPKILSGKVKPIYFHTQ
Summary of the method: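 Using qHTS, AR-UAS-bla GripTite HEK293 cells received compound, then R1881, and were cultured 16 h at 37C/5% CO2 before a 2 h room-temperature LiveBLAzer B/G FRET substrate step and fluorescence measurement.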

[2] = target: Androgen receptor (Homo sapiens) (UniProt P10275); experiment: qHTS assay to identify small molecule agonists of the androgen receptor (AR) signaling pathway (AID 743036; active = well fitted activation curve with a large enough effect in the signal ratio in the repeat runs, with a control signal flat, not every such curve was filed as active; inconclusive = weak or mixed curves, or effect the other way; inactive = no such curve, though single readings can be large or run the other way; the % refers to the signal ratio; as to activation: % is scaled to controls: 0 for no effect and ±100 for the full control effect); details: HEK293 AR-UAS-bla GripTite, beta-lactamase FRET ratio, 16 h; activation: at 62.4 µM (top of the series) unless noted
Summary of the method: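 AR-bla HEK293 cells, 2,000/well; 4 h preincubation 37C/5% CO2; compound (DMSO) 16 h at 37C; LiveBLAzer B/G FRET substrate 2 h RT; fluorescence intensity read-out.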

[3] = qHTS assay to identify small molecule antagonists of the androgen receptor (AR) signaling pathway using the MDA cell line - cell viability counter screen (AID 743041; also: nearly all actives have a fitted effect of over 45% in size); details: MDA-kb2 viability, CellTiter-Fluor, 16 h, cells co-treated with R1881 androgen agonist; viability change, negative = cytotoxic: at 70.3 µM (top of the series) unless noted
Summary of the method: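 Same-well cytotoxicity was assessed by CellTiter-Fluor in MDA-kb2 AR-luc cells after 16 h of compound treatment under R1881 agonism.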

[4] = target: Androgen receptor (Homo sapiens) (UniProt P10275); experiment: qHTS assay to identify small molecule antagonists of the androgen receptor (AR) signaling pathway using the MDA cell line (AID 743042; also: nearly all actives have a fitted effect of over 55% in size)
Summary of the method: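 MDA-kb2 breast carcinoma cells carrying MMTV-luciferase (AR/GR responsive) were co-treated with compounds and the agonist R1881 for 16 h at 37C. Inhibition read as ONE-Glo luminescence; CellTiter-Fluor fluorescence measured in parallel for cytotoxicity.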

[5] = qHTS assay to identify small molecule antagonists of the thyroid receptor (TR) signaling pathway - cell viability counter screen (AID 743064); details: GH3.TRE-Luc viability, CellTiter-Fluor, 24 h; activity change, negative = cytotoxic: at 70.3 µM (top of the series); also: nearly all actives have a fitted effect of over 50% in size
Summary of the method: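 GH3.TRE-Luc cells, 4 h pre-plating; cpd + T3 1 nM final; 37 °C 23.5 h; CellTiter-Fluor 30 min; fluorescence read.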

[6] = qHTS assay to identify small molecule antagonists of the thyroid receptor (TR) signaling pathway (AID 743065); also: nearly all actives have a fitted effect of over 55% in size
Summary of the method: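 GH3.TRE-Luc rat pituitary cells (two TREs driving luciferase) were dosed with compound, then stimulated with 1 nM T3 (final) for 23.5 h at 37 C. ONE-Glo luminescence was the read-out, with CellTiter-Fluor fluorescence as the cytotoxicity counter-screen.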

[7] = system: thyroid hormone receptor (rat, GH3 cells); experiment: qHTS assay to identify small molecule agonists of the thyroid receptor (TR) signaling pathway (AID 743066; calls by dose curve; as to activation: % is scaled to controls: 0 for no effect and ±100 for the full control effect); details: GH3.TRE-Luc cells, TR agonist luciferase, 24 h; activation: at 83.9 µM (top of the series) unless noted
[8] = target: Estrogen receptor (Homo sapiens) (UniProt P03372); experiment: qHTS assay to identify small molecule antagonists of the estrogen receptor alpha (ER-alpha) signaling pathway (AID 743069; active = well fitted curve in the direction sought with a large enough effect in the signal ratio in the repeat runs, not every such curve was filed as active; inconclusive = weak or mixed curves, or effect the other way; inactive = no such curve, though single readings can be large or run the other way; the % refers to the signal ratio; as to activity, negative = inhibition: % is scaled to controls: 0 for no effect and ±100 for the full control effect); details: HEK293 ER-alpha-UAS-bla, beta-lactamase ratio, antagonist mode; activity, negative = inhibition: at 69.4 µM (top of the series)
UniProt P03372, sequence (P03372 whole entry, looked up): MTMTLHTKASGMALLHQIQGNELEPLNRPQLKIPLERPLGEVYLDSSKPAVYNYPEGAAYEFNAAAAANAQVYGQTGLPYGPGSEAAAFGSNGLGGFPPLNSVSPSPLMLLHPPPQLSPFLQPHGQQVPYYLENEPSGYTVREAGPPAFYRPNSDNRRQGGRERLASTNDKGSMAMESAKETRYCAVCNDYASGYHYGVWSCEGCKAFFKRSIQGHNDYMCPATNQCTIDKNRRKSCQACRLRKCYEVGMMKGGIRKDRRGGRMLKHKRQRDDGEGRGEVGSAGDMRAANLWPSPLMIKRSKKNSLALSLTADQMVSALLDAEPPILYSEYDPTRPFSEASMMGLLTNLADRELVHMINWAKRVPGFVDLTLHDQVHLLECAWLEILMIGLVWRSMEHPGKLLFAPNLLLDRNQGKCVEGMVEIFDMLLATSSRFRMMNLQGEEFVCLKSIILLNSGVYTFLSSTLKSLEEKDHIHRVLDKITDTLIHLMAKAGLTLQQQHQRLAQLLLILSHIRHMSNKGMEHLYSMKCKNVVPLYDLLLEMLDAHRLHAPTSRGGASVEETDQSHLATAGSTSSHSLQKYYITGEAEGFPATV
Summary of the method: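 Reporter cells (ER-alpha-bla, HEK293 background) are conditioned overnight in stripped-serum medium (2% charcoal-stripped FBS). Compound and 17beta-estradiol exposure runs 18 hr at 37C, 5% CO2.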

[9] = qHTS assay to identify small molecule antagonists of the estrogen receptor alpha (ER-alpha) signaling pathway - cell viability counter screen (AID 743074; calls by dose curve;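 also: HEK293 cells carrying ER-alpha-UAS-bla reporter stimulated with 17beta-estradiol; nearly all actives have a fitted effect of over 45% in size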)
[10] = target: Estrogen receptor (Homo sapiens) (UniProt P03372); experiment: qHTS assay to identify small molecule agonists of the estrogen receptor alpha (ER-alpha) signaling pathway using the BG1 cell line (AID 743079); details: BG1Luc4E2 cells, ERE-luciferase agonist, 22 h; activation: at 70.3 µM (top of the series) unless noted; also: nearly all actives have a fitted effect of over 20% in size
[11] = qHTS assay to identify small molecule antagonists of the estrogen receptor alpha (ER-alpha) signaling pathway using the BG1 cell line - cell viability counter screen (AID 743081);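 also: compound given together with 17beta-estradiol as the ER stimulus; nearly all actives have a fitted effect of over 45% in size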
[12] = qHTS assay to identify aromatase inhibitors - cell viability counter screen (AID 743084);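 also: cells stimulated with testosterone during compound exposure; nearly all actives have a fitted effect of over 55% in size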
[13] = target: Aryl hydrocarbon receptor (Homo sapiens) (UniProt P35869); experiment: qHTS assay to identify small molecule that activate the aryl hydrocarbon receptor (AhR) signaling pathway (AID 743085); also: nearly all actives have a fitted effect of over 15% in size
UniProt P35869, sequence (P35869 whole entry, looked up): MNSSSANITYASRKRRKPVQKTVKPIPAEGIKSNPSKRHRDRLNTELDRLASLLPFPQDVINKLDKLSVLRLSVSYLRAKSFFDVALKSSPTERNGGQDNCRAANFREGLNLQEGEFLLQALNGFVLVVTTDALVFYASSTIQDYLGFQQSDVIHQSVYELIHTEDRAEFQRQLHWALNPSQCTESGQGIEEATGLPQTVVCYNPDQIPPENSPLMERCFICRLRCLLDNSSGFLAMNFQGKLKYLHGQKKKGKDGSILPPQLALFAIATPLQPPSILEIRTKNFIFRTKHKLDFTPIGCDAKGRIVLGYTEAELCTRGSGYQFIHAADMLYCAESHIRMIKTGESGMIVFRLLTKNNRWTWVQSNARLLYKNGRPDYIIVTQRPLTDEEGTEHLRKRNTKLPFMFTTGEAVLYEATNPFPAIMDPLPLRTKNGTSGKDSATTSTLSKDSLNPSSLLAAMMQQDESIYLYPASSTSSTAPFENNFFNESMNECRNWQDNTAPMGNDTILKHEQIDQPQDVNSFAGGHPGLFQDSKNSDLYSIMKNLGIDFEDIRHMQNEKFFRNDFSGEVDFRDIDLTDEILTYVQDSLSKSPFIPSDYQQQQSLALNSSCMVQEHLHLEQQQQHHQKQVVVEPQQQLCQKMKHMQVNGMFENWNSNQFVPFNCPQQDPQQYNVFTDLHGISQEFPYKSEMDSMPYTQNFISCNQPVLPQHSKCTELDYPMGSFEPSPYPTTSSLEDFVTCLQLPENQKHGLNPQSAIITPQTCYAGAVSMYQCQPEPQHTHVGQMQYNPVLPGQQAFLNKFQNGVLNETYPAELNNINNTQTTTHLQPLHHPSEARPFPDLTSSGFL
Summary of the method: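 Luminescence read-out: ONE-Glo reagent, 30 min at room temperature, in HG2L7.5c1 HepG2 reporter cells treated 24 h at 37C. Viability was measured beforehand by CellTiter-Fluor fluorescence after 30 min at 37C.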

[14] = qHTS assay to identify small molecule that activate the aryl hydrocarbon receptor (AhR) signaling pathway - cell viability counter screen (AID 743086); also: nearly all actives have a fitted effect of over 45% in size
Summary of the method: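 HepG2-AhR-luc (HG2L7.5c1) cells, 4000/well, treated 24 h at 37 C with compound; viability measured as CellTiter-Fluor fluorescence after 30 min in the same wells as the luciferase read.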

[15] = target: Peroxisome proliferator-activated receptor gamma (Homo sapiens) (UniProt P37231); experiment: qHTS assay to identify small molecule agonists of the peroxisome proliferator-activated receptor gamma (PPARg) signaling pathway (AID 743094; active = well fitted activation curve with a large enough effect in the signal ratio in the repeat runs, not every such curve was filed as active; inconclusive = weak or mixed curves, or effect the other way; inactive = no such curve, though single readings can be large or run the other way; the % refers to the signal ratio; as to activation: % is scaled to controls: 0 for no effect and ±100 for the full control effect); details: HEK293H PPARg-UAS-bla, beta-lactamase FRET ratio, 17 h; activation: at 57 µM (top of the series) unless noted
UniProt P37231, sequence (P37231 whole entry, looked up): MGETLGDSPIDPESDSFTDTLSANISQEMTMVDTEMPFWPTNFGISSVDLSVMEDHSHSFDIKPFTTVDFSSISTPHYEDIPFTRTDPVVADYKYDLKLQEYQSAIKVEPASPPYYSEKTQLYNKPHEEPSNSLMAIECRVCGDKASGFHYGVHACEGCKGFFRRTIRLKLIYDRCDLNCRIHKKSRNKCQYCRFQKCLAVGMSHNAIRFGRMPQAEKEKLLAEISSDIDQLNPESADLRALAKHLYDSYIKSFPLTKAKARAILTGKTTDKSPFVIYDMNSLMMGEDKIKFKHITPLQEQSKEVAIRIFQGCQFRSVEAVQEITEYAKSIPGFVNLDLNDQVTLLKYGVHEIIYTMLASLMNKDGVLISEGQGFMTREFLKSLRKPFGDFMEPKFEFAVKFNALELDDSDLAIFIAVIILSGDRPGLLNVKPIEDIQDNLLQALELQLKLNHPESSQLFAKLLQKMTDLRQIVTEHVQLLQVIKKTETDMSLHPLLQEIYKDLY
Summary of the method: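 Following 5 h plating at 37C, PPARg-bla HEK293H cells receive compound or DMSO for 17 h; fluorescence intensity is recorded after LiveBLAzer B/G loading for 1 h at room temperature.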

[16] = target: Estrogen receptor (Homo sapiens) (UniProt P03372); experiment: qHTS assay to identify small molecule agonists of the estrogen receptor alpha (ER-alpha) signaling pathway (AID 743075; calls by dose curve;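 also: HEK293 GripTite cells with ER-alpha and UAS-driven beta-lactamase reporter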); details: HEK293 ER-alpha-UAS-bla, beta-lactamase FRET ratio, 18 h; activation: at 70.1 µM (top of the series)
[17] = qHTS assay to identify small molecule antagonists of the estrogen receptor alpha (ER-alpha) signaling pathway using the BG1 cell line (AID 743080; calls by dose curve;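 also: BG1 cells stimulated with 17beta-estradiol alongside compound; nearly all actives have a fitted effect of over 25% in size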); details: BG1Luc4E2 ERE-luciferase antagonist mode, luminescence; activity change, negative = inhibition: at 70.3 µM (top of the series) unless noted
Summary of the method: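 BG1Luc4E2, endogenous ER-alpha, 4xERE-luc; 5 d charcoal-stripped FBS, phenol red free; 24 h plating; cpd + 17beta-estradiol 21.5 h, 37 C/5% CO2; CellTiter-Fluor viability 30 min, then ONE-Glo luciferase 30 min RT.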

[18] = target: Peroxisome proliferator-activated receptor gamma (Homo sapiens) (UniProt P37231); experiment: qHTS assay to identify small molecule antagonists of the peroxisome proliferator-activated receptor gamma (PPARg) signaling pathway (AID 743191; calls by dose curve; also: nearly all actives have a fitted effect of over 30% in size); details: HEK293H PPARg-UAS-bla, beta-lactamase ratio, antagonist, 17 h; ratio activity, negative = inhibition: at 62.6 µM (top of the series) unless noted
Summary of the method: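 GeneBLAzer PPARg UAS-bla HEK293H cells, 5 h post-plating, exposed to compounds 17 h at 37C. LiveBLAzer B/G FRET substrate added for 1 h at room temperature; beta-lactamase reporter read by fluorescence intensity.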
Potency is read from the fitted curve at half-maximal effect; tags tell the direction and shape of the fitted curve or compound fluorescence and quenching.

CC(C)Oc1cc(-n2nc(C(C)(C)C)oc2=O)c(Cl)cc1Cl
Potency [1]: active: 43 µM and active: 12.3 µM | Potency [2]: inconclusive: 21.6 µM [rising, partial curve, poor fit] | Potency [3]: inconclusive: 68.6 µM [cytotoxic, single point] | Potency [4]: active: 38.6 µM | Potency [5]: active: 53.7 µM and inconclusive: 68.6 µM [cytotoxic, single point] | Potency [6]: inconclusive: 68.6 µM [inhibitor, single point] | Potency [7]: inconclusive: 27.3 µM [activator, partial curve, poor fit] | Potency [8]: inconclusive: 54.2 µM and active: 61.6 µM [inconclusive] | Potency [9]: inconclusive: 54.2 µM [cytotoxic, partial curve, poor fit] and inactive | Potency [10]: inconclusive: 60.3 µM [inhibitor] and inconclusive: 61.1 µM [inhibitor] | Potency [11]: inconclusive: 75.9 µM [cytotoxic, partial curve, poor fit] | Potency [12]: inconclusive: 67.6 µM [cytotoxic, single point] | Potency [13]: inconclusive: 75.9 µM [activator, partial curve, poor fit] | Potency [14]: inconclusive: 24.3 µM [falling, partial curve, poor fit] | activation [15]: inconclusive: -15.8%

C=CC(=O)[O][Sn]([CH2]CCC)([CH2]CCC)[CH2]CCC
Potency [1]: inconclusive: 11 µM [falling, full curve] | Potency [2]: inconclusive: 12.3 µM [falling, partial curve] | Potency [3]: active: 2.17 µM | Potency [6]: active: 0.611 µM | Potency [7]: active: 0.193 µM | Potency [8]: inconclusive: 19.5 µM [cytotoxic, full curve] | Potency [9]: active: 1.1 µM | Potency [16]: inconclusive: 1.95 µM [falling, full curve] | Potency [10]: inconclusive: 969 nM [inhibitor, full curve] | Potency [17]: active: 433 nM | Potency [11]: active: 5.45 µM | Potency [15]: inconclusive: 13.8 µM [falling, partial curve] | Potency [18]: inconclusive: 12.3 µM [cytotoxic, full curve]

CCC(C)c1cc([N+](=O)[O-])cc([N+](=O)[O-])c1OC(=O)C=C(C)C (configuration not stated)
Potency [1]: inconclusive: 21.9 µM [rising, partial curve, poor fit] | activation [2]: inconclusive: -3.96% | Potency [3]: inconclusive: 24.3 µM [cytotoxic, single point] | Potency [4]: inconclusive: 21.7 µM [inhibitor, partial curve] | Potency [5]: inconclusive: 24.3 µM [cytotoxic, partial curve] | Potency [15]: inconclusive: 6.92 µM [inhibitor, full curve] | Potency [18]: inconclusive: 4.36 µM [full curve]

O=S1OCC2C(CO1)C1(Cl)C(Cl)=C(Cl)C2(Cl)C1(Cl)Cl (configuration not stated)
Potency [1]: active: 38.9 µM and active: 48.9 µM | Potency [2]: inconclusive: 55 µM [cytotoxic] | activation [2]: inconclusive: 50.9% | Potency [4]: inconclusive: 61.2 µM [inhibitor, single point] and inconclusive: 68.5 µM [inhibitor, single point] | Potency [6]: active: 61.2 µM and active: 61.1 µM | Potency [7]: inconclusive: 21.7 µM [inhibitor, partial curve, poor fit] | activation [7]: inconclusive: -7.76% [phenotype inactive] | Potency [8]: inconclusive: 55 µM and inactive | Potency [9]: inconclusive: 49 µM [cytotoxic, single point] and inactive | Potency [10]: active: 1.94 µM and inconclusive: 68.5 µM [inhibitor, single point] | Potency [17]: active: 61.2 µM and active: 61.1 µM | Potency [12]: active: 48.6 µM and inconclusive: 76.9 µM [cytotoxic, partial curve, poor fit] | Potency [14]: inconclusive: 68.5 µM [falling, partial curve, poor fit] | Potency [18]: inconclusive: 54.9 µM [inhibitor, partial curve, poor fit]

O=C(CCl)c1ccc(Cl)cc1Cl
Potency [1]: inconclusive: 48.7 µM [falling, partial curve] | activity change, negative = inhibition [1]: inconclusive: -20.7% and inconclusive: -20.9% | Potency [2]: inconclusive: 26.8 µM [fluorescent, single point] and inconclusive: 54.9 µM [fluorescent, single point] | Potency [4]: inconclusive: 29.8 µM [inhibitor] and inconclusive: 68.6 µM [inhibitor, single point] and inactive | Potency [6]: inconclusive: 27.2 µM [inhibitor, single point] | Potency [7]: inconclusive: 10.6 µM [inhibitor, partial curve, poor fit] and inconclusive: 21.7 µM [inhibitor, partial curve, poor fit] | Potency [9]: inconclusive: 21.3 µM [cytotoxic, partial curve] and active: 38.9 µM and inconclusive: 48.7 µM [cytotoxic, single point] | Potency [10]: inactive | Potency [17]: inconclusive: 23.7 µM [rising, partial curve] and inconclusive: 54.5 µM [rising, partial curve]

Cc1ccc(N(SC(F)(Cl)Cl)S(=O)(=O)N(C)C)cc1
Potency [1]: inconclusive: 49 µM [falling, partial curve, poor fit] | Potency [2]: inconclusive: 54.9 µM [falling, single point] | Potency [3]: active: 54.5 µM | Potency [5]: active: 2.73 µM | activation [7]: inconclusive: -10.2% [phenotype inactive] | Potency [9]: inconclusive: 38.9 µM [cytotoxic, partial curve, poor fit] | Potency [11]: inconclusive: 68.6 µM [cytotoxic, single point] | activation [15]: inconclusive: -10.9% | Potency [18]: inconclusive: 3.89 µM [rising, full curve]
